# Results: PubChem BioAssay AID2546 (National Center for Advancing Translational Sciences (NCATS), 2010)
# Among all 310,000 compounds or so, about 11,000 (3.5%) were called active. Inconclusive means that the source gave no clear call. Such entries were picked first, then a sample of the others. Calls follow the shape of the dose curve; as a rule, active = well fitted inhibition curve with a large enough effect; inconclusive = small, poorly fitted or top-dose-only effect, or effect the other way; inactive = flat fitted curve, though single readings scatter. Potencies of inconclusive entries are left out as doubtful fits.
# Assay: VP16 counterscreen qHTS for inhibitors of ROR gamma transcriptional activity;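 also: Gal4-VP16 expression switched on by copper sulfate through the metallothionein promoter; nearly all actives have a fitted effect of over 50% in size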
# Settings: Drosophila S2 Gal4-VP16 UAS-luciferase, luminescence, 20 h; activity, negative = inhibition: at 53.6 µM (top of the series)
# % is scaled to controls: 0 for no effect and ±100 for the full control effect; potency is read from the fitted curve at half-maximal effect; tags tell the direction and shape of the fitted curve.
SMILES,Potency,"activity, negative = inhibition"
CC1=NOC2(C1)N(C)c1ccccc1C2(C)C (configuration not stated),inactive,–
CCc1ccc(NC(=O)c2nc(S(=O)(=O)Cc3ccccc3)ncc2Cl)cc1,active: 3.16 µM,–
CCn1nc(NS(=O)(=O)c2ccccc2)c2cc3cccc(C)c3nc21,"inconclusive [inhibitor, single point]",–
Cc1nc(NC(=O)c2ccc(F)cc2)sc1C(=O)Nc1ccc2c(c1)CCC2,"inconclusive [inhibitor, single point]",–
CCOC(=O)C1CCN(c2cc3c(cc2NC(=O)c2ccc(F)cc2)n(C)c(=O)n3C)CC1,inactive,–
O=C(CN1CCCC1)Nc1ccc(Cl)cc1C(F)(F)F,inactive,–
CO/N=C/c1ccc(N2CCN(C(=O)c3ccc(C)cc3)CC2)c([N+](=O)[O-])c1,"inconclusive [inhibitor, single point]",–
O=C(NCCC1=CCCCC1)c1ccc(Cl)c(S(=O)(=O)N2CCCCC2)c1,"inconclusive [inhibitor, partial curve]",–
Cc1ccc(C(=O)Nc2ccc3c(c2)nc2n3CCSC2)cc1,"inconclusive [inhibitor, full curve]",–
COc1ccccc1NC(=S)Nc1ccccc1F,"inconclusive [inhibitor, single point]",–
Cc1ccc(/C=N/n2c(-c3cccc(Cl)c3)n[nH]c2=S)o1,"inconclusive [inhibitor, partial curve]",–
CC(C)(C)NC(=O)COC(=O)/C=C/c1ccc(F)cc1,"inconclusive [inhibitor, single point]",–
O=C1CC[C@@H](CN(Cc2ccccn2)Cc2nc(Cc3ccccc3)no2)N1,inactive,–
COc1ccc(/C=C/C(=O)c2ccc(C(=O)/C=C/c3ccc(OC)c(OC)c3)cc2)cc1OC,"inconclusive [inhibitor, partial curve]",–
N#C/C(=C\C=C\c1ccccc1)C(=O)NCc1ccco1,"inconclusive [activator, single point]",–
C=CCN1C(=O)/C(=C/c2ccc(O)cc2)S/C1=N/c1nccs1,inactive,–
CCN(CC)c1ccc(C(=O)N/N=C(\C)c2cccnc2)cc1,inactive,–
C=CCn1c(SCC(=O)N2CCOCC2)nc(O)cc1=O,"inconclusive [inhibitor, single point]",–
S=C(Nc1ccccc1)N1CCCCCC1,"inconclusive [inhibitor, single point]",–
Cc1nnc(SCC(=O)Nc2sccc2C#N)s1,inactive,–
O=C(c1ccc(OCC2CCCO2)cc1)N1CCN(c2ccccc2)CC1 (configuration not stated),"inconclusive [inhibitor, single point]",–
Cc1ccc(S(=O)(=O)N2CCCN(C(=O)c3cc4ccccc4[nH]3)CC2)cc1,"inconclusive [inhibitor, single point]",–
Cc1ccn2c(C(=O)N/N=C\c3ccc4c(c3)OCO4)c(C)nc2c1,"inconclusive [inhibitor, full curve, poor fit]",–
O=[N+]([O-])c1ccc2nc(-c3ccc(Cl)cc3)n(OCc3ccccc3)c2c1,"inconclusive [activator, full curve, poor fit]",–

SMILES,Potency,"activity, negative = inhibition"
Fc1ccc(/C=C2\CCCC3=C2NC(=S)NC3c2ccc(F)cc2)cc1 (configuration not stated),"inconclusive [inhibitor, single point]",–
COc1ccc(OS(=O)(=O)c2ccc(N3C(=O)CCC3=O)cc2)cc1,"inconclusive [inhibitor, single point]",–
CC(C)(C)c1ccc(OC(=O)c2ccc3snnc3c2)cc1,"inconclusive [activator, single point]",–
NNc1nc2c(Cl)c(Cl)ccc2s1,"inconclusive [inhibitor, single point]",–
COc1ccc(C(=O)/C=C2/c3ccccc3CC(C)(C)N2C)cc1OC,inactive,–
O=C(Nc1ccc(Nc2ccccc2)cc1)c1cc([N+](=O)[O-])ccc1Cl,"inconclusive [inhibitor, partial curve, poor fit]",–
CCc1ccc(NC(=S)NCc2ccccc2)cc1,"inconclusive [inhibitor, single point]",–
Cc1ccccc1NC(=S)N1CCC(C(=O)c2ccc(F)cc2)CC1,"inconclusive [inhibitor, partial curve]",–
O=C(Nc1nccs1)c1ccc(-c2ccc(Cl)cc2)o1,"inconclusive [inhibitor, single point]",–
COC(=O)Cc1ccc(NC(=S)N2CCN(c3cccc(O)c3)CC2)cc1,"inconclusive [inhibitor, single point]",–
O=C1Nc2ccc([N+](=O)[O-])cc2C1(O)N1CCCCCC1 (configuration not stated),"inconclusive [inhibitor, single point]",–
Cc1nc(N2N=C(c3ccc(Cl)cc3)CC2c2ccco2)sc1C(=O)N(C)C (configuration not stated),inactive,–
CC(=O)/C(=N\Nc1ccc(Cl)cc1Cl)Sc1nnc(-c2ccccc2)n1-c1ccccc1,inactive,–
COc1ccc(-n2cc(-c3ccccc3)c3c(N4CCN(CCO)CC4)ncnc32)cc1,"inconclusive [inhibitor, partial curve]",–
Cc1onc(-c2ccccc2)c1C(=O)N/N=C/c1cccs1,"inconclusive [inhibitor, single point]",–
O=C(N/N=C/c1ccc(Cl)cc1)c1cc2c(s1)-c1ccccc1CC2,inactive,–
CC(=O)NNc1ncnc2c1cnn2-c1ccc(C)c(Cl)c1,"inconclusive [activator, single point]",–
O=C(c1cc(-c2ccco2)nn1-c1cccc(Cl)c1)N1CCCCC1,"inconclusive [inhibitor, single point]",–
CCN(Cc1ccccc1)c1c(C(=O)O)cnc2c1cnn2C,inactive,–
COc1ccc(NC(=O)c2ccc([N+](=O)[O-])s2)c([N+](=O)[O-])c1,"inconclusive [activator, single point]",–
Cc1ccc(S(=O)(=O)Nc2ccc3oc(=O)sc3c2)c(C)c1,–,inactive: 3.91% [at 0.365 µM]
Cc1ccccc1Nc1oc(-c2ccccc2)nc1-c1cccs1,inactive,–
COc1cccc(-c2cc3c(=O)n(-c4ccccc4)c(=S)[nH]c3s2)c1,active: 2.51 µM,–
O=C1CC(N2CCN(c3ncccn3)CC2)C(=O)N1CCc1ccccc1 (configuration not stated),inactive,–

SMILES,Potency,"activity, negative = inhibition"
Cc1ccc2ccc(C(Nc3cccc(C(F)(F)F)c3)c3cccnc3)c(O)c2n1 (configuration not stated),"inconclusive [inhibitor, single point]",–
Cc1cc(C)cc(C(=O)OCC(=O)Nc2cccc(S(=O)(=O)NC3=NCCCCC3)c2)c1,"inconclusive [inhibitor, partial curve]",–
COc1ccc(NC(=O)c2oc3ccc(S(=O)(=O)N4CCC5(CC4)OCCO5)cc3c2C)cc1,inactive,–
CN(CC(=O)Nc1ccc(S(=O)(=O)N(C)C)cc1)Cc1ccc(C(F)(F)F)cc1,"inconclusive [inhibitor, single point]",–
O=C(CSc1nnc(-c2cccs2)n1Cc1ccco1)c1ccc2c(c1)OCO2,"inconclusive [inhibitor, single point]",–
O=C(Nc1ccccc1Cl)ON=C1c2ccccc2-c2ccccc21,"inconclusive [inhibitor, single point]",–
Nc1nc(SCC(=O)Nc2cccc(S(=O)(=O)N3CCCCCC3)c2)n[nH]1,inactive,–
Cc1ccc(NC(=O)CC2S/C(=N/N=C/C=C/c3ccccc3)NC2=O)cc1Cl (configuration not stated),active: 3.98 µM,–
COc1ccc(C(=O)N2CCC3(CCCN(Cc4ccncc4)C3)CC2)cc1,inactive,–
Cc1ccn2c(NC3CCCCC3)c(C)nc2c1,"inconclusive [inhibitor, single point]",–
COc1ccccc1Cn1c(C)nc2ccccc21,"inconclusive [inhibitor, single point]",–
c1coc(-c2nnc(-c3ccc4c(c3)OCO4)o2)c1,"inconclusive [inhibitor, single point]",–
COc1cccc(-c2nc(CS(=O)(=O)CC(=O)N3CCN(c4ccccn4)CC3)c(C)o2)c1,inactive,–
COc1ccccc1-n1cc(-c2ccccc2)[nH]c1=S,active: 20 µM,–
Cc1cccc(C)c1OCC(=O)Nc1ccccc1N1CCCCC1,active: 17.8 µM,–
O=C(Cc1csc(Nc2nc(=S)[nH]c3ccccc23)n1)NCCCN1CCN(c2cccc(Cl)c2)CC1,active: 7.08 µM,–
N=C1/C(=C\c2ccc(OC(=O)c3ccccc3)cc2)C(=O)N=C2SC(N3CCOCC3)=NN12,"inconclusive [inhibitor, single point]",–
COc1ccc(-n2c(C)nc3sc4c(c3c2=O)CCCC4)cc1,inactive,–
CN(C)c1ccc(/C=N/NC(N)=S)cc1[N+](=O)[O-],"inconclusive [inhibitor, single point]",–
CN1CCN(c2nc(C#N)cc(-c3ccccc3)n2)CC1,inactive,–
O=C(O)COc1ccc(/C=N/Nc2nc(Nc3ccccc3)nc(N3CCCCC3)n2)cc1,"inconclusive [inhibitor, single point]",–
COc1ccc2c(c1)Cc1sc(NC(=O)c3cccnc3)nc1-2,"inconclusive [activator, single point]",–
CC(=O)c1cccc(NC(=S)NCCCCc2ccccc2)c1,"inconclusive [inhibitor, single point]",–
Cc1cccc(C)c1NC(=O)COc1ccccc1C(=O)Nc1ccc(Br)cn1,"inconclusive [inhibitor, single point]",–
